Reference: paper PMC10726135
The other results are listed elsewhere or left out. At the low end of the ranking the order means little. Measured with an extract: partners may take part in the binding.

target: T1, HNF4alpha8 (COS-7 nuclear extract) (UniProt P41235-5); assay: protein-binding microarray; details: COS-7 nuclear extract on double-stranded Agilent 4x180k PBM; binding buffer, salt, pH and temperature not given; high values mean tight binding; double strand, one strand shown; sequences stand for … in …GCCTAGGGAGATTAGAGTATCGGTCGA
T1 sequence: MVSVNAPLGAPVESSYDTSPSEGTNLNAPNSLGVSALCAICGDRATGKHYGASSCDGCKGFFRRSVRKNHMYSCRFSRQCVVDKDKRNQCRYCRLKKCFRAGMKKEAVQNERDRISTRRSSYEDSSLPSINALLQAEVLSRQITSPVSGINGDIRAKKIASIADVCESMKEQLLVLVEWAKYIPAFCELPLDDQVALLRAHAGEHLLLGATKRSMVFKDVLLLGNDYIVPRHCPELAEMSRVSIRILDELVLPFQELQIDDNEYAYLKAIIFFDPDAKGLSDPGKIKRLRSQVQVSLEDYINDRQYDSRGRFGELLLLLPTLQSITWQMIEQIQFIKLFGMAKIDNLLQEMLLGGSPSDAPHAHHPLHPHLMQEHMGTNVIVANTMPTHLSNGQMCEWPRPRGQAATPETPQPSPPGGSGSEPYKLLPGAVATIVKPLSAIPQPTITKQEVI

Which binding signal (log2 normalized intensity) does the source give for TTTAACTTCTGGGGGCAAGGTACACCATCT here?
The binding signal (log2 normalized intensity) was 3.99.

CCTTGCTAATAAATGATTCATTCAGCAAAT was tested. Which binding signal (log2 normalized intensity) did it give?
Its binding signal (log2 normalized intensity) is -1.06.

With GTCAGGGAAGACTGATAAGAAAACTAGCAA as the sequence, how does the binding signal (log2 normalized intensity) read?
The binding signal (log2 normalized intensity) was -1.39.

Which binding signal (log2 normalized intensity) does the source give for CACCATATGTATGTGAAGCTTGCTGATTAC here?
The binding signal (log2 normalized intensity) was 0.969.

AATAAGCACGTTAGAGAAAAAGCCCAAGAA was tested. Which binding signal (log2 normalized intensity) did it give?
The binding signal (log2 normalized intensity) was -1.28.

With ACCAGTCAGGCAAACAACAGGCATCAACTC as the sequence, how does the binding signal (log2 normalized intensity) read?
Its binding signal (log2 normalized intensity) is -1.29.

GCTGGGGTTTTACCAGGCACGCATGGAATT was tested. Which binding signal (log2 normalized intensity) did it give?
The binding signal (log2 normalized intensity) was -1.34.

With AGTTGCTCTGGAGTGCAGGTGGGAGGGGTG as the sequence, how does the binding signal (log2 normalized intensity) read?
The binding signal (log2 normalized intensity) was -1.39.

Which binding signal (log2 normalized intensity) does the source give for GTGGCCGCGAGCACCGCGCGCGCAAAGCGG here?
Its binding signal (log2 normalized intensity) is -1.42.

How did the binding signal (log2 normalized intensity) turn out when CCCCGCCTTGGCCTCCCGGAGAGGCCCCGC was run?
The binding signal (log2 normalized intensity) was 2.79.

Which binding signal (log2 normalized intensity) does the source give for CTGCAAACAGTGAGCCCAGTGGAGTAGGCT here?
Its binding signal (log2 normalized intensity) is -1.27.

TATCGGTCACCATAAAACATTCTATTCTAT was tested. Which binding signal (log2 normalized intensity) did it give?
Its binding signal (log2 normalized intensity) is -1.31.

AGGCAGCAGCTCCAATTAGGAGATCAGCCC was tested. Which binding signal (log2 normalized intensity) did it give?
Its binding signal (log2 normalized intensity) is -1.25.

CATAAACTCCAACTCAGCCCCCAGCATTAT was tested. Which binding signal (log2 normalized intensity) did it give?
Its binding signal (log2 normalized intensity) is 4.96.

With CCCATCCGCAGTGGGAGAGCAAGGGTCAAG as the sequence, how does the binding signal (log2 normalized intensity) read?
Its binding signal (log2 normalized intensity) is 4.51.

Which binding signal (log2 normalized intensity) does the source give for AACAACGGCGGCCCAGTCAAACCCCGCGCT here?
The binding signal (log2 normalized intensity) was -1.27.

Which binding signal (log2 normalized intensity) does the source give for ACAAAGGGCAAAGTCCCCTTTCCTCATATT here?
Its binding signal (log2 normalized intensity) is 5.5.

Which binding signal (log2 normalized intensity) does the source give for AGTCTCCGAGGAACCCAGACTGCATTTTCA here?
Its binding signal (log2 normalized intensity) is -1.39.

With GATAAAGCAGGTTGTACCTTGACCCAAGAA as the sequence, how does the binding signal (log2 normalized intensity) read?
The binding signal (log2 normalized intensity) was 5.6.

With GCTGTCACTGGCTGCTGCTCAGGAGACCGA as the sequence, how does the binding signal (log2 normalized intensity) read?
Its binding signal (log2 normalized intensity) is -1.2.

How did the binding signal (log2 normalized intensity) turn out when TCAGCTGCCACTGGAAGCTCTTCTGTGCCT was run?
Its binding signal (log2 normalized intensity) is -1.33.

With TTTTGAATGACAGTGTCAGGACCTTGCTCC as the sequence, how does the binding signal (log2 normalized intensity) read?
Its binding signal (log2 normalized intensity) is 2.73.

For GCCGACTGCCAGGAGGGGACTTCAAAGGCT, which binding signal (log2 normalized intensity) is on record?
The binding signal (log2 normalized intensity) was -1.21.

GCTACAAAGATTGCATGAGATTTTGCTCAA was tested. Which binding signal (log2 normalized intensity) did it give?
The binding signal (log2 normalized intensity) was -1.33.

How did the binding signal (log2 normalized intensity) turn out when GTATTGAGATAAGCAAGACTGCAGGGTCAT was run?
The binding signal (log2 normalized intensity) was 2.04.

For AATCTTGATAATGCCCTGACCCTAGATGAG, which binding signal (log2 normalized intensity) is on record?
The binding signal (log2 normalized intensity) was 2.11.

Which binding signal (log2 normalized intensity) does the source give for AGGAGGAGCCAGTGAAGACTGAAAAGAGAT here?
The binding signal (log2 normalized intensity) was -1.31.

Which binding signal (log2 normalized intensity) does the source give for AAGGGCAGCAGTAACCCCCCAGGAGCGAGT here?
Its binding signal (log2 normalized intensity) is 3.82.

How did the binding signal (log2 normalized intensity) turn out when ACAAAGCCCATGCTGGACCCTGGGCTTAGT was run?
The binding signal (log2 normalized intensity) was 3.18.

How did the binding signal (log2 normalized intensity) turn out when TGTCTCCCTCTGCAGCAAAGTCCAGGCATA was run?
The binding signal (log2 normalized intensity) was 1.76.

Which binding signal (log2 normalized intensity) does the source give for ATAACAGTGTAAGGACATTGCCCCCTATGT here?
Its binding signal (log2 normalized intensity) is 5.06.

With AAGCAGCAAACCAGATAAGACTATCTCATG as the sequence, how does the binding signal (log2 normalized intensity) read?
The binding signal (log2 normalized intensity) was -1.33.

Which binding signal (log2 normalized intensity) does the source give for TTTGTCACATTCCAGACTTTGTACAAGGGC here?
Its binding signal (log2 normalized intensity) is 3.1.

How did the binding signal (log2 normalized intensity) turn out when CTCCGACCCCACGGACTTAAATTGTGCTGT was run?
The binding signal (log2 normalized intensity) was 0.721.

For GAACATTAACTCTCTGTGAGTGTGTTGGCA, which binding signal (log2 normalized intensity) is on record?
Its binding signal (log2 normalized intensity) is 0.99.

For TTGCCCAGCTGTTCCGTGTTCCAGAGCCTC, which binding signal (log2 normalized intensity) is on record?
Its binding signal (log2 normalized intensity) is -0.808.

ACCTAGGGGACATTCTTTAGAGGCTGGGTG was tested. Which binding signal (log2 normalized intensity) did it give?
The binding signal (log2 normalized intensity) was 0.525.

With AGAGTTGAACCCTTGGGGCTTTTGCAATTT as the sequence, how does the binding signal (log2 normalized intensity) read?
Its binding signal (log2 normalized intensity) is 2.16.

With GGTGTTCCTGAGTAAATCTCACATTCGTTA as the sequence, how does the binding signal (log2 normalized intensity) read?
The binding signal (log2 normalized intensity) was 0.57.

For AACTAAGAACACAGTCATTTATTCACTTAT, which binding signal (log2 normalized intensity) is on record?
Its binding signal (log2 normalized intensity) is -0.544.

Which binding signal (log2 normalized intensity) does the source give for GTTTTCAAACAATGAGAGGCAACATTCCCA here?
Its binding signal (log2 normalized intensity) is -1.3.

Which binding signal (log2 normalized intensity) does the source give for TGGGGACAGGGATTAAGTACCGCTCCTCTC here?
The binding signal (log2 normalized intensity) was -1.31.

How did the binding signal (log2 normalized intensity) turn out when GGAGCTGTGGGCCTCACACCCTCTAGGGTA was run?
Its binding signal (log2 normalized intensity) is -1.43.

With TTTTAAATACCTTTTTGGGACTGATAACTT as the sequence, how does the binding signal (log2 normalized intensity) read?
The binding signal (log2 normalized intensity) was 1.23.

How did the binding signal (log2 normalized intensity) turn out when CACCTTTGAAATCTCAAATAGCTGGGTCTC was run?
The binding signal (log2 normalized intensity) was 0.777.

How did the binding signal (log2 normalized intensity) turn out when ATTACTTCTCAACTGATATGGCTCTGTTTT was run?
Its binding signal (log2 normalized intensity) is 0.533.

How did the binding signal (log2 normalized intensity) turn out when GAGCTTCTGTCTTGGACTGCGAAAGATAAA was run?
Its binding signal (log2 normalized intensity) is 1.08.

How did the binding signal (log2 normalized intensity) turn out when CTCTGAGATTCGGTGAGGGATTGTTTAGGT was run?
The binding signal (log2 normalized intensity) was 0.829.

With CTCTTGTAATTTAAGTGGTTCACAAACATT as the sequence, how does the binding signal (log2 normalized intensity) read?
Its binding signal (log2 normalized intensity) is 0.823.

Which binding signal (log2 normalized intensity) does the source give for CAAGGCAGCTCAGCTAGTGAGATACGGCCT here?
Its binding signal (log2 normalized intensity) is -1.26.

TTTTTTCAAGTGTTAGCTGTTTCCAAATAT was tested. Which binding signal (log2 normalized intensity) did it give?
The binding signal (log2 normalized intensity) was 0.664.

With TCTGTTTGAGGTTCACTGGGGAGACTCTCT as the sequence, how does the binding signal (log2 normalized intensity) read?
Its binding signal (log2 normalized intensity) is 0.00246.

With GAAATACAGTAGACTTTTTTTTTCTTAATT as the sequence, how does the binding signal (log2 normalized intensity) read?
The binding signal (log2 normalized intensity) was -0.353.

For GCCCAGCAGAGCAGTTTAGAGAAAGGGTCA, which binding signal (log2 normalized intensity) is on record?
The binding signal (log2 normalized intensity) was 2.77.

TGACACAGCCACAAAAACCAAAGGTCACTT was tested. Which binding signal (log2 normalized intensity) did it give?
Its binding signal (log2 normalized intensity) is 5.08.

With CTGGTGGAGGGGACCTTTTCCTCGGGTGTC as the sequence, how does the binding signal (log2 normalized intensity) read?
Its binding signal (log2 normalized intensity) is 1.34.

With CTAGTTCATTAAACATGTTTACTCTGGTCC as the sequence, how does the binding signal (log2 normalized intensity) read?
Its binding signal (log2 normalized intensity) is 1.59.

With TTTGCAAGTGGAGATTTCAGCCGCTTTGAG as the sequence, how does the binding signal (log2 normalized intensity) read?
The binding signal (log2 normalized intensity) was -1.45.

Which binding signal (log2 normalized intensity) does the source give for ATGCAAACAGCAGCCACATTCCATGAGCTG here?
The binding signal (log2 normalized intensity) was -1.21.

With TTTTTAGATAGTGACTTGAAAGGGACTTAG as the sequence, how does the binding signal (log2 normalized intensity) read?
The binding signal (log2 normalized intensity) was 0.258.

How did the binding signal (log2 normalized intensity) turn out when ACCCAGAACCCCCAGGTCACCCACAACCTA was run?
Its binding signal (log2 normalized intensity) is 3.97.

Which binding signal (log2 normalized intensity) does the source give for TTTTAAAATAGATAAGTCCCTAAGAGGAAT here?
The binding signal (log2 normalized intensity) was -1.3.

Which binding signal (log2 normalized intensity) does the source give for AAAGCCAGCTGTCTATCCTTATTTATCTTC here?
The binding signal (log2 normalized intensity) was -1.31.

With ATTAACCAAAGCTACACAGATAAGCCATTC as the sequence, how does the binding signal (log2 normalized intensity) read?
Its binding signal (log2 normalized intensity) is -1.31.

With GGAATGGCAGTGCTTGTCCAAGATGGCAAT as the sequence, how does the binding signal (log2 normalized intensity) read?
Its binding signal (log2 normalized intensity) is -0.946.

How did the binding signal (log2 normalized intensity) turn out when CTGCACTGACACTGTCCCAGCTGAGATTCA was run?
Its binding signal (log2 normalized intensity) is -1.41.

How did the binding signal (log2 normalized intensity) turn out when ATCAGCAGCCCAGCATACCATTCCCACCCC was run?
Its binding signal (log2 normalized intensity) is 4.27.

TCAATGACTACCTGTTACCCACCTGATATT was tested. Which binding signal (log2 normalized intensity) did it give?
The binding signal (log2 normalized intensity) was 1.23.

Which binding signal (log2 normalized intensity) does the source give for CCGATCCTTACTATTAGGTCTTTGAAGTTG here?
Its binding signal (log2 normalized intensity) is 1.77.

How did the binding signal (log2 normalized intensity) turn out when TCACCTGGAGAAGCAGAAGCTGCACACATG was run?
The binding signal (log2 normalized intensity) was -1.3.

Which binding signal (log2 normalized intensity) does the source give for GGGTCATTTTATGGGAAAACAGAATGGTCT here?
Its binding signal (log2 normalized intensity) is 1.88.

CAGCAGGAGACCTGAAACTAGACCAAGAAG was tested. Which binding signal (log2 normalized intensity) did it give?
Its binding signal (log2 normalized intensity) is -1.38.

For GGATTGTTACATCATAGTGTTTGCCTTATT, which binding signal (log2 normalized intensity) is on record?
The binding signal (log2 normalized intensity) was 1.93.
